From PubChem BioAssay AID1671194 (National Center for Advancing Translational Sciences (NCATS), 2021)
The whole screen tested about 140,000 compounds, of which about 240 (0.17%) were called active. Inconclusive means that the source gave no clear call. Such entries were picked first, then a sample of the others. The call rests on the fitted dose curve; in most records, active means well fitted inhibition curve with a large enough effect; inconclusive means small, poorly fitted or top-dose-only effect; inactive means no such curve, though single readings can be large or run the other way. Potencies beside an inconclusive call are fits to weak or partial responses and may not hold up.

Assay: Primary qHTS assay for inhibitors of alpha-synuclein gene (SNCA) expression; further: nearly all actives have a fitted effect of over 45% in size;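 on activity change, negative = inhibition: plate controls were DMSO cells for no effect and cell-free wells for full effect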
Conditions: HEK-293 SNCA-luciferase knock-in, luminescence, 24 h; activity change, negative = inhibition: at 57.2 µM (top of the series) unless noted
Potency means the concentration at half of the fitted maximal effect; tags describe the fitted curve by direction and shape.

Compound	Potency	activity change, negative = inhibition
COc1ccc(-c2ccc3ncn(Cc4ccccc4)c(=O)c3n2)cc1OC	inconclusive: 56.2 µM [inhibitor, single point]	
CCc1ccc(OCC2c3cc(OC)c(OC)cc3CCN2C(=O)COc2ccccc2)cc1 (stereo not given)	inconclusive: 12.6 µM [inhibitor, partial curve, poor fit]	
CCCN(C(=O)c1coc(=O)c2ccccc12)c1ccccc1C	inconclusive: 10 µM [inhibitor, partial curve, poor fit]	
COc1cc2c(=O)n(CCc3ccccc3)c(=O)n(CC(=O)Nc3ccccc3)c2cc1OC	inconclusive: 1.78 µM [inhibitor, partial curve, poor fit]	
COC(=O)[C@@H]1Cc2c([nH]c3ccccc23)[C@H]2C[C@@H](N3CCOCC3)C[C@@H](c3ccc(C(F)(F)F)cc3)N21	inconclusive: 35.5 µM [inhibitor, single point]	
CC(C)(C)OC(=O)NCCCC(=O)NCc1c[nH]c2ncccc12	inconclusive: 7.94 µM [inhibitor, full curve]	
Cc1ccc(C)c(CN2C(=O)c3ccccc3S(=O)(=O)c3ccc(C(=O)N4CCCCC4)cc32)c1	inconclusive: 28.2 µM [inhibitor, partial curve, poor fit]	
O=C(c1cccc(-c2cccc(-n3cnnc3)c2)c1)N1CCCCC1	inconclusive: 8.91 µM [inhibitor, partial curve, poor fit]	
O=C1CC2(CCN(C(=O)C3CCCN(C(=O)c4cccc(Cl)c4)C3)CC2)Oc2ccccc2N1 (stereo not given)		inactive: 0.871%
CCOc1cccc(-c2noc(-c3ncn4c3COC(c3ccc(OC)cc3)C4)n2)c1 (stereo not given)	inconclusive: 5.62 µM [inhibitor, full curve, poor fit]	
O=C(Nc1cccc(F)c1)c1ccc(Cn2ccn3nc4c(c3c2=O)CCCC4)cc1	inconclusive: 39.8 µM [inhibitor, single point]	
CC(C)(C)C(=O)NCCNC(=O)c1cccc(-c2ccc(C(F)(F)F)cc2)c1		inactive: -18.2%
CN(Cc1cncs1)C1CCCc2ccccc21 (stereo not given)		inactive: -32.9% [at 87.6 µM]
Cc1nc2scc(C)n2c(=O)c1S(=O)(=O)N1CCN(c2cccc(C(F)(F)F)c2)CC1	inconclusive: 44.7 µM [inhibitor, single point]	
Cc1ncccc1C(=O)N1CCC(N2C(=O)C3(CCCC3)C2c2scnc2C)CC1 (stereo not given)	inconclusive: 31.6 µM [inhibitor, single point]	
CC(=O)Nc1ccc(CN2C(=O)OC3(CCN(Cc4ccc(C#N)cc4)CC3)C2(C)c2ccccc2)cc1 (stereo not given)		inactive: 3.21%
CCN1CCN(CCNC(=O)CCC[C@H]2NC[C@@H]3C[C@H]2CN(Cc2ccccc2)C3)CC1	inconclusive: 8.91 µM [inhibitor, single point]	
COc1ccc(-c2ccnc(-c3nnc(C)n3C3CCCCC3)c2)cc1OC		inactive: -2.96% [at 87.6 µM]
Cc1ccc(-c2nc(-c3nnn4c3COC(c3ccccc3Cl)C4)no2)cc1 (stereo not given)		inactive: -11.3%
COc1cccc(Nc2ccc(CN3CCC(C)(NC(C)=O)C3)cc2)c1 (stereo not given)		inactive: 2.48% [at 87.6 µM]

Compound	Potency	activity change, negative = inhibition
O=C1CC(c2ccccc2)N(Cc2ccncc2)CCCN(C(=O)C2CCC2)CCN1 (stereo not given)	inconclusive: 2.82 µM [inhibitor, full curve]	
COc1ccc(CNCCC(c2ccccc2)c2ccc3c(c2)OCO3)cc1 (stereo not given)	inconclusive: 39.8 µM [inhibitor, single point]	
COc1ccccc1Nc1ccnc(N2CCN(C(=O)c3cccc(Cl)c3)CC2)n1	inconclusive: 7.08 µM [inhibitor, full curve, poor fit]	
O=C(c1ccc(Cl)cc1)N1CC2(CCCN(Cc3cccnc3)C2)Cc2ccccc21 (stereo not given)	inconclusive: 12.6 µM [inhibitor, partial curve, poor fit]	
O=C1OC2(CN1CCOc1ccccc1)CN(C(=O)c1ccc(Oc3ccccc3)cc1)C2	inconclusive: 12.6 µM [inhibitor, partial curve, poor fit]	
COc1cccc(CN2C(=O)OC3(CCN(Cc4c[nH]c5ccccc45)CC3)C2(C)c2cccnc2)c1 (stereo not given)	inconclusive: 7.08 µM [inhibitor, single point]	
OC(CNc1nccc(-c2cccnc2)n1)COc1ccc(Cl)cc1 (stereo not given)		inactive: -9.1%
CCCC1=Nc2cc(C(=O)NCCc3ccccc3)ccc2Sc2ccc(C)cc21	inconclusive: 39.8 µM [inhibitor, single point]	
CCOC(=O)C1CCCN(C(=O)c2ccc3nc(-c4ccccn4)oc3c2)C1 (stereo not given)		inactive: 32.2%
CNC(=O)CCn1ncc2cc(OCc3ccccc3-c3ccccc3F)ccc21		inactive: -17.2% [at 87.6 µM]
O=C(c1ccccc1F)N1CCN(C(=O)c2nnn3c2COC(c2ccccc2)C3)CC1 (stereo not given)	inconclusive: 39.8 µM [inhibitor, single point]	
CN(C)CCOCC1(C)COc2ccc(C(=O)Nc3ccc4[nH]ccc4c3)cc2N1 (stereo not given)	inconclusive: 5.01 µM [inhibitor, full curve, poor fit]	
COc1cc(C(=O)N2CCc3c([nH]c4ccccc34)C2c2ccc(C)cc2)cc(OC)c1OC (stereo not given)	inconclusive: 17.8 µM [inhibitor, single point]	
Cc1ccc(-c2noc(CCCC(=O)NCc3ccco3)n2)cc1	inconclusive: 8.91 µM [inhibitor, partial curve, poor fit]	
CCC1Oc2ccc(NC(=O)COc3ccccc3)cc2CN(Cc2ccccc2Cl)C1=O (stereo not given)		inactive: -4.53%
O=S(=O)(c1ccc(F)cc1)N(Cc1nc(-c2ccc(Cl)cc2)no1)C1CCCCC1	inconclusive: 14.1 µM [inhibitor, partial curve, poor fit]	
CCN(CC)CCNC(=O)C1N(C(C)C)C(=O)C12CCCC2 (stereo not given)		inactive: 5.62%
Cn1nccc1CN1CC2(C1)NC(=O)c1ccccc1O2	inconclusive: 12.6 µM [inhibitor, partial curve, poor fit]	
CCN(CCCNC(=O)CSc1cc(=O)n(CC)c2ccccc12)c1cccc(C)c1	inconclusive: 17.8 µM [inhibitor, partial curve, poor fit]	
O=C(Nc1ccc2c(c1)OCCO2)N1CCC(Cc2nc(-c3ccncc3)n[nH]2)CC1	inconclusive: 10 µM [inhibitor, partial curve, poor fit]	
